Publication PMC9911399, “Two distinct binding modes provide the RNA-binding protein RbFox with extraordinary sequence specificity”
Residue numbers refer to the chain shown, from its start. This is one part of the list.

T1: RBFOX1 RRM (Homo sapiens, UniProt Q9NWB1 109-208)
T1 sequence: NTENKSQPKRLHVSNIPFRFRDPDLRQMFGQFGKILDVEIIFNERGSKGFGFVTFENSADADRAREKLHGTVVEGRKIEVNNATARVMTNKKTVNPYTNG

B1: ACGUAUA (DNA:RNA)
RNA: GGGAGACCGGAAUUCAGAUUGUCCACGUAUAUUAAAUCCCGUCGUAGCCACCA
DNA 1: CAATCTGAATTCCGGTCTCCC
DNA 2: TGGTGGCTACGACGGGATT
B2: AAAUGAA (DNA:RNA)
RNA: B1 RNA with C26A, G27A, A29G, U30A
DNA 1: CAATCTGAATTCCGGTCTCCC
DNA 2: TGGTGGCTACGACGGGATT
B3: UCGGAUU (DNA:RNA)
RNA: B1 RNA with A25U, U28G, A31U
DNA 1: CAATCTGAATTCCGGTCTCCC
DNA 2: TGGTGGCTACGACGGGATT
B4: CACAGAA (DNA:RNA)
RNA: B1 RNA with A25C, C26A, G27C, U28A, A29G, U30A
DNA 1: CAATCTGAATTCCGGTCTCCC
DNA 2: TGGTGGCTACGACGGGATT
B5: CUAUCUG (DNA:RNA)
RNA: B1 RNA with A25C, C26U, G27A, A29C, A31G
DNA 1: CAATCTGAATTCCGGTCTCCC
DNA 2: TGGTGGCTACGACGGGATT
B6: GAUGUGC (DNA:RNA)
RNA: GGGAGACCGGAAUUCAGAUUGUCCGAUGUGCUUAAAUCCCGUCGUAGCCACCA
DNA 1: CAATCTGAATTCCGGTCTCCC
DNA 2: TGGTGGCTACGACGGGATT
B7: AAUAAAG (DNA:RNA)
RNA: B1 RNA with C26A, G27U, U28A, U30A, A31G
DNA 1: CAATCTGAATTCCGGTCTCCC
DNA 2: TGGTGGCTACGACGGGATT
B8: UAGGAAA (DNA:RNA)
RNA: B1 RNA with A25U, C26A, U28G, U30A
DNA 1: CAATCTGAATTCCGGTCTCCC
DNA 2: TGGTGGCTACGACGGGATT
B9: GGAGUGA (DNA:RNA)
RNA: B6 RNA with A26G, U27A, C31A
DNA 1: CAATCTGAATTCCGGTCTCCC
DNA 2: TGGTGGCTACGACGGGATT
B10: AGGACCG (DNA:RNA)
RNA: B1 RNA with C26G, U28A, A29C, U30C, A31G
DNA 1: CAATCTGAATTCCGGTCTCCC
DNA 2: TGGTGGCTACGACGGGATT
B11: AGAAUCC (DNA:RNA)
RNA: B6 RNA with G25A, A26G, U27A, G28A, G30C
DNA 1: CAATCTGAATTCCGGTCTCCC
DNA 2: TGGTGGCTACGACGGGATT
B12: UGGACCA (DNA:RNA)
RNA: B1 RNA with A25U, C26G, U28A, A29C, U30C
DNA 1: CAATCTGAATTCCGGTCTCCC
DNA 2: TGGTGGCTACGACGGGATT
B13: GGGACAC (DNA:RNA)
RNA: B6 RNA with A26G, U27G, G28A, U29C, G30A
DNA 1: CAATCTGAATTCCGGTCTCCC
DNA 2: TGGTGGCTACGACGGGATT
B14: ACAAGCC (DNA:RNA)
RNA: B1 RNA with G27A, U28A, A29G, U30C, A31C
DNA 1: CAATCTGAATTCCGGTCTCCC
DNA 2: TGGTGGCTACGACGGGATT
B15: UCGCUUG (DNA:RNA)
RNA: B1 RNA with A25U, U28C, A29U, A31G
DNA 1: CAATCTGAATTCCGGTCTCCC
DNA 2: TGGTGGCTACGACGGGATT
B16: ACCUAUU (DNA:RNA)
RNA: B1 RNA with G27C, A31U
DNA 1: CAATCTGAATTCCGGTCTCCC
DNA 2: TGGTGGCTACGACGGGATT
B17: GAGAAUG (DNA:RNA)
RNA: B1 RNA with A25G, C26A, U28A, A31G
DNA 1: CAATCTGAATTCCGGTCTCCC
DNA 2: TGGTGGCTACGACGGGATT
B18: GAUUACG (DNA:RNA)
RNA: B6 RNA with G28U, U29A, G30C, C31G
DNA 1: CAATCTGAATTCCGGTCTCCC
DNA 2: TGGTGGCTACGACGGGATT
B19: UAGCCAA (DNA:RNA)
RNA: B1 RNA with A25U, C26A, U28C, A29C, U30A
DNA 1: CAATCTGAATTCCGGTCTCCC
DNA 2: TGGTGGCTACGACGGGATT
B20: AUCCUGA (DNA:RNA)
RNA: B1 RNA with C26U, G27C, U28C, A29U, U30G
DNA 1: CAATCTGAATTCCGGTCTCCC
DNA 2: TGGTGGCTACGACGGGATT
B21: UCUUCGC (DNA:RNA)
RNA: B6 RNA with G25U, A26C, G28U, U29C
DNA 1: CAATCTGAATTCCGGTCTCCC
DNA 2: TGGTGGCTACGACGGGATT
B22: GGAAUUC (DNA:RNA)
RNA: B6 RNA with A26G, U27A, G28A, G30U
DNA 1: CAATCTGAATTCCGGTCTCCC
DNA 2: TGGTGGCTACGACGGGATT
B23: GCUGAUU (DNA:RNA)
RNA: B1 RNA with A25G, G27U, U28G, A31U
DNA 1: CAATCTGAATTCCGGTCTCCC
DNA 2: TGGTGGCTACGACGGGATT
B24: ACGGGGG (DNA:RNA)
RNA: B1 RNA with U28G, A29G, U30G, A31G
DNA 1: CAATCTGAATTCCGGTCTCCC
DNA 2: TGGTGGCTACGACGGGATT
B25: GCAAUAA (DNA:RNA)
RNA: B1 RNA with A25G, G27A, U28A, A29U, U30A
DNA 1: CAATCTGAATTCCGGTCTCCC
DNA 2: TGGTGGCTACGACGGGATT
B26: CCAAAGU (DNA:RNA)
RNA: B1 RNA with A25C, G27A, U28A, U30G, A31U
DNA 1: CAATCTGAATTCCGGTCTCCC
DNA 2: TGGTGGCTACGACGGGATT
B27: GUGCCUU (DNA:RNA)
RNA: B1 RNA with A25G, C26U, U28C, A29C, A31U
DNA 1: CAATCTGAATTCCGGTCTCCC
DNA 2: TGGTGGCTACGACGGGATT
B28: UCAACAG (DNA:RNA)
RNA: B1 RNA with A25U, G27A, U28A, A29C, U30A, A31G
DNA 1: CAATCTGAATTCCGGTCTCCC
DNA 2: TGGTGGCTACGACGGGATT
B29: UUUUUCC (DNA:RNA)
RNA: B6 RNA with G25U, A26U, G28U, G30C
DNA 1: CAATCTGAATTCCGGTCTCCC
DNA 2: TGGTGGCTACGACGGGATT
B30: GCUGUGC (DNA:RNA)
RNA: B6 RNA with A26C
DNA 1: CAATCTGAATTCCGGTCTCCC
DNA 2: TGGTGGCTACGACGGGATT
B31: UGUGUAU (DNA:RNA)
RNA: B6 RNA with G25U, A26G, G30A, C31U
DNA 1: CAATCTGAATTCCGGTCTCCC
DNA 2: TGGTGGCTACGACGGGATT

Each binder was assayed against T1, RBFOX1 RRM (assay: EMSA; HiTS-Eq, 1 nM pool, 10 min; buffer printed only for the single-RNA assays: 10 mM Tris pH 7.5, 150 mM NaCl, 3.4 mM EDTA, 0.001% NP-40, 30 C). Settings: tags: His6 N-terminal (pET28a); label: 5' 32P.
Method in brief: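 These values rest on relative association constants, computed from read-count changes of each RNA species versus the control reaction and normalised to the cognate motif. Reads came from free RNA recovered by 8% native PAGE after purified RbFox RRM (wild type or mutant) at increasing concentrations was equilibrated for 10 min in 50 µL with 1 nM of a 5′-radiolabelled pool with 7 randomized nucleotides and DNA-annealed flanks.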
B1 was tested, and the binding signal was 0.0028 KA relative to UGCAUGU. For B2, the binding signal was 0.00432 KA relative to UGCAUGU. With B3 the binding signal was 0.00345 KA relative to UGCAUGU. With B4 the binding signal was 0.00249 KA relative to UGCAUGU. In the case of B5, the binding signal is reported as 0.00983 KA relative to UGCAUGU. With B6 the binding signal was 0.0168 KA relative to UGCAUGU. With B7 the binding signal was 0.00348 KA relative to UGCAUGU. For B8, the binding signal was 0.00352 KA relative to UGCAUGU. In the case of B9, the binding signal is reported as 0.0106 KA relative to UGCAUGU. In the case of B10, the binding signal is reported as 0.017 KA relative to UGCAUGU. For B11, the binding signal was 0.00784 KA relative to UGCAUGU. For B12, the binding signal was 0.0148 KA relative to UGCAUGU. B13 was tested, and the binding signal was 0.0278 KA relative to UGCAUGU. B14 was tested, and the binding signal was 0.000601 KA relative to UGCAUGU. In the case of B15, the binding signal is reported as 0.0368 KA relative to UGCAUGU. With B16 the binding signal was 0.00145 KA relative to UGCAUGU. For B17, the binding signal was 0.0321 KA relative to UGCAUGU. In the case of B18, the binding signal is reported as 0.0106 KA relative to UGCAUGU. With B19 the binding signal was 0.00414 KA relative to UGCAUGU. With B20 the binding signal was 0.00629 KA relative to UGCAUGU. With B21 the binding signal was 0.0142 KA relative to UGCAUGU. B22 was tested, and the binding signal was 0.018 KA relative to UGCAUGU. In the case of B23, the binding signal is reported as 0.0205 KA relative to UGCAUGU. With B24 the binding signal was 0.0156 KA relative to UGCAUGU. In the case of B25, the binding signal is reported as 0.00157 KA relative to UGCAUGU. In the case of B26, the binding signal is reported as 0.00134 KA relative to UGCAUGU. With B27 the binding signal was 0.0138 KA relative to UGCAUGU. In the case of B28, the binding signal is reported as 0.00335 KA relative to UGCAUGU. For B29, the binding signal was 0.0127 KA relative to UGCAUGU. In the case of B30, the binding signal is reported as 0.0218 KA relative to UGCAUGU. With B31 the binding signal was 0.0191 KA relative to UGCAUGU.
